Assay results: the RNAGym collection of RNA variant scans (doi:10.1073/pnas.2313332121)
Variants at the background level are over-represented here.

B1: TPR 5TU (parent)
chain: GGAUCUUCUCGAUCUAACAAAAAAGACAAAUCUGCCACAAAGCUUGAGAGCAUCUUCGGAUGCAGAGGCGGCAGCCUUCGGUGGCGCGAUAGCGCCAACGUUCUCAACUAUGACACGCAAAACGCGUGCUCCGUUGAAUGGAGUUUAUCAUG

Variants of: B1
Assay: polymerase ribozyme fitness, log enrichment relative to wild type (log ratio); higher = more active; in vitro selection for triplet polymerase activity
In short: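 To select mutant libraries of each subunit of a heterodimeric triplet polymerase ribozyme, built by PCR and transcribed, each was annealed with a biotinylated primer, partner subunit and triplets, then incubated frozen at −7 °C. Extended constructs were gel-excised, captured on streptavidin beads and amplified by RT-PCR, in one round carried out in triplicate. Illumina sequencing of input and output libraries kept genotypes with ≥10 input reads and ≥1 read per output. Fitness is the base-2 logarithm of genotype enrichment relative to wild-type enrichment, from inverse-variance-weighted replicate averages.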

| Variant | polymerase ribozyme fitness (log ratio) |
| --- | --- |
| A52C C69G G74C | ≤ -4.2 |
| A52G G58C G68C | ≤ -4.2 |
| A52G G152C | -3.59 |
| A52U G59A G80C U109A | ≤ -4.2 |
| A52U A60G C76U A89U C96U | -3.8 |
| A52G G83A A121G | -0.142 |
| A52G C72U G81A G86A C103G A122C | ≤ -4.2 |
| A52U G68C G84U U101C C132U A150G | ≤ -4.2 |
| A52G C108G | ≤ -4.2 |
| A52G U90A G92C C114U U148C | ≤ -4.2 |
| C51U G81A U148A | ≤ -4.2 |
| A52G U53G | -3.21 |
| A52G G71C C85G C118U C132A | ≤ -4.2 |
| U53A C76G G92A A107C G124U C149A | ≤ -4.2 |
| A52G G84A C99U G100U U144A | ≤ -4.2 |
| A52C G71A C85A G94C G141U | ≤ -4.2 |
| C51U G92A C99A C149U | ≤ -4.2 |
| A52C U78C G88C C96A C116U | ≤ -4.2 |
| U53A A66C C132A | ≤ -4.2 |
| A52G C75U C79A C103U | ≤ -4.2 |
| A52G G83U C85A A98G | ≤ -4.2 |

| Variant | polymerase ribozyme fitness (log ratio) |
| --- | --- |
| A52G G100U A107U | ≤ -4.2 |
| C51U G92U A107U A113U | ≤ -4.2 |
| A52G U53A G92A U148G | ≤ -4.2 |
| A52G G62C A64C C79A G84A G117C | ≤ -4.2 |
| A52C U53A G80C U82A C99G A106U | ≤ -4.2 |
| U53A C57U A91C C125A | ≤ -4.2 |
| C51U G88C A107G A113G C131G A147C | ≤ -4.2 |
| A52C U56A C75G G83A A113U | ≤ -4.2 |
| A52C G59A | -1.18 |
| A52U C76G C108U C125A | ≤ -4.2 |
| A52C G71C | ≤ -4.2 |
| A52G G141U U145C G152A | -2.27 |
| A52G U56C G62C C87U C96U | ≤ -4.2 |
| A52C G80C C108G A122G G140U | ≤ -4.2 |
| C51U G83A C105G A107C G117A | ≤ -4.2 |
| A52G A89U C93G | ≤ -4.2 |
| A52U U56G U61A A107G G124A G133C | ≤ -4.2 |
| U53A C118U U134C G141A U146C | -0.702 |
| U53A A66G A91C A121G C123A | ≤ -4.2 |
| C51U C103A | -1.29 |
| A52G G71C C95A C131A U139A | ≤ -4.2 |

| Variant | polymerase ribozyme fitness (log ratio) |
| --- | --- |
| C51U G58A G92C G136A U148C | -3.3 |
| A52G C69U A120U A138U U144A | ≤ -4.2 |
| A52G A66C G67C G84U C99U C114U C116A U139A U145A | ≤ -4.2 |
| A52G C57A A73U | -0.666 |
| U53A C95U C96G A142C U148C | ≤ -4.2 |
| C51U C93U U109G C116U | -3.68 |
| A52G A60U G71A A121U U135G U148A | -4.18 |
| A52U U55A G68U | ≤ -4.2 |
| A52U C79A A110U C116U A120U C131G | ≤ -4.2 |
| C51U C54U C85A A106C | ≤ -4.2 |
| U53A C96A U102A U139G G141A | ≤ -4.2 |
| C51U C85A C132A U135G G143C | ≤ -4.2 |
| U53A C75U G81U C95U A98U C105G A106U | ≤ -4.2 |
| A52C C57U G86U C99U C118U C125G G143A U151A | ≤ -4.2 |
| U53A C132U | -1.73 |
| A52G U53G C57G G68C G81C C87U G140U | ≤ -4.2 |
| A52C G80C G84U C93U | ≤ -4.2 |
| A52U U55A A60C C96A A122G A147C | ≤ -4.2 |
| A52G A73G C79U A122C U148C | ≤ -4.2 |
| A52C C149A | ≤ -4.2 |
| A52C C93G A122G | -3.18 |

| Variant | polymerase ribozyme fitness (log ratio) |
| --- | --- |
| C51U C93G A120C G143C | -4.17 |
| A52C G65U G74C C87G C103G | ≤ -4.2 |
| U53A C54G C93U U101C G126A A150C | ≤ -4.2 |
| A52C G74A A89C C95A | ≤ -4.2 |
| U53A C57A A73U C76A C103G U148C | ≤ -4.2 |
| A52U C85G C99G C118A U144C | ≤ -4.2 |
| A52G G141U | 1 |
| A52C C99U G112C C116U U151C | ≤ -4.2 |
| A52G C125U C131U G143U U146G | ≤ -4.2 |
| A52G C54A U78G G83A U144A C149G | ≤ -4.2 |
| A52G A97U | -0.8 |
| A52U C57G C87U C116U G128A | ≤ -4.2 |
| C51U U139G U144A | 0.259 |
| A52U A66G G88A G92U C105U U139A | ≤ -4.2 |
| A52G C57A A66G G68C C93U U101G G112U G140C U145A | ≤ -4.2 |
| A52C G84A A107G G140C | ≤ -4.2 |
| A52U U82C G83U C99A U144G U148C | ≤ -4.2 |
| A52G C57U A91U C108G | ≤ -4.2 |
| A52C G74C U104A | ≤ -4.2 |
| A52U G81U A98G C99A U102C C103A U148G | ≤ -4.2 |
